Source: paper PMC12223841, “Compounds Isolated from Paepalanthus spp. (Eriocaulaceae) and Their Evaluation in Antimicrobial, Cytotoxic, and Antiviral Assays” (ACS Omega, 2025)

System: ZIKV replicon (BHK-21-RepZIKV_IRES-Neo)
Conditions: 10 μM, 48 h

COc1c(O)cc2oc(-c3ccc(O)cc3)c(OC3OC(COC(=O)C=Cc4ccc(O)cc4)C(O)C(O)C3O)c(=O)c2c1O [Compound 4, 6-Methoxykaempferol-3-O-β-D-6″-(p-coumaroyl)-glycopyranoside]
Rluc signal (replicon activity remaining): 100%
